PubChem BioAssay AID504339 (National Center for Advancing Translational Sciences (NCATS), 2011)
In all, about 390,000 compounds went through this assay and about 17,000 (4.4%) were called active. The shares of active, inactive and inconclusive entries below differ from those in the screen. The call rests on the fitted dose curve; in most records, active means well fitted inhibition curve with a large enough effect; inconclusive means small, poorly fitted or top-dose-only effect; inactive means no such curve, though single readings can be large or run the other way. Potencies of inconclusive entries are doubtful fits and often do not repeat.

Biological target: Lysine-specific demethylase 4A (Homo sapiens) (UniProt O75164)
UniProt O75164, sequence (O75164 whole entry, looked up, the tested form may be a part): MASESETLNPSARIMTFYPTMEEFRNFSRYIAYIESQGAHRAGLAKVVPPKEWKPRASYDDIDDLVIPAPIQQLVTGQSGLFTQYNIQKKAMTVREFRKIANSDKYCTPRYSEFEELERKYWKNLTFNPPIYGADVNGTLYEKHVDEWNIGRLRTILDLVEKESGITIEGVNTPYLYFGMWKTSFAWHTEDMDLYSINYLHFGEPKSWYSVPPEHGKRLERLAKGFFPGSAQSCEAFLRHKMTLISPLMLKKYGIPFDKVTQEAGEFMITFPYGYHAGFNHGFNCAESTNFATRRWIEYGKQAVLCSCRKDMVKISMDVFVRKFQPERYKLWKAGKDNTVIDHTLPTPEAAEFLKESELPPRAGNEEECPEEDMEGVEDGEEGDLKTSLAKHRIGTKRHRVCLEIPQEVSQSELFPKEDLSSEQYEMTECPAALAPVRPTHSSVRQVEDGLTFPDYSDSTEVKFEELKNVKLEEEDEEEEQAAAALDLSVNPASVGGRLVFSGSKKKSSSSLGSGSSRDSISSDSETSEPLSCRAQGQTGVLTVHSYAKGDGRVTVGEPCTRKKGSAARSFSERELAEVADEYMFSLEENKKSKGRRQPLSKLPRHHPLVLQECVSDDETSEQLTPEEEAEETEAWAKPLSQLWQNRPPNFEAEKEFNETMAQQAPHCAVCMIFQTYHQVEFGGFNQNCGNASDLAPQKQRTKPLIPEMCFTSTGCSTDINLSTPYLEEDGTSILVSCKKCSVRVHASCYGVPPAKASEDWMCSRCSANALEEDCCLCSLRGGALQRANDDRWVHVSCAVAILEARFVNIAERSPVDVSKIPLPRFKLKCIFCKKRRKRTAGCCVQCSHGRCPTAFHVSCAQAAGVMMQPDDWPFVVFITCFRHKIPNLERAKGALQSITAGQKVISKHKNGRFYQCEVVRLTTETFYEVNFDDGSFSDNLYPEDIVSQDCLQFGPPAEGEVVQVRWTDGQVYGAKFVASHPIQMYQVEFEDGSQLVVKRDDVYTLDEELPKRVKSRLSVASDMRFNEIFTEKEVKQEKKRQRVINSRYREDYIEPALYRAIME
Experiment: qHTS Assay for Inhibitors of JMJD2A-Tudor Domain; further: nearly all actives have a fitted effect of over 50% in size
Conditions: AlphaScreen JMJD2A-Tudor / H3K4me3 peptide binding; activity change, negative = inhibition: at 114 µM (top of the series)
On the % scale 0 is the no-effect control and ±100 the full control effect; potency means the concentration at half of the fitted maximal effect; tags describe the fitted curve by direction and shape.

Structure (SMILES)	Potency	activity change, negative = inhibition
CCCCNc1c(-c2ccc(SC3CCCCC3)c(OC)c2)nc2ccc(C)cn12	inconclusive: 25.1 µM [inhibitor, full curve, poor fit]	
Cc1cccnc1Nc1nc(-c2ccc(O)cc2)cs1	inconclusive: 56.2 µM [inhibitor, partial curve]	
CC(C)CC(=O)NC(=S)Nc1ccccn1	inconclusive: 39.8 µM [inhibitor, single point]	
Cc1ccc2c(c1C)NC(C(=O)O)C1CC=CC21 (stereo not given)	active: 7.94 µM	
NC(=O)C1CCN(c2nc(-c3cccnc3)cs2)CC1	active: 79.4 µM	
CC1=C(C(=O)Nc2cccc(C(F)(F)F)c2)C2(CCCCC2)OC1=O		inactive: -17.5%
CNC(=O)N(O)C1N(NC(=O)Nc2ccccc2)C(=S)SC1(C)C (stereo not given)	inconclusive: 28.2 µM [inhibitor, single point]	
CC1(c2ccccc2)CC(C)(C)N(C(=O)c2cc([N+](=O)[O-])cc([N+](=O)[O-])c2)c2ccccc21 (stereo not given)	inconclusive: 11.2 µM [inhibitor, full curve]	
Cc1oc(-c2cccc(Cl)c2)nc1CN1CCCC(C(=O)NCc2ccc(Cl)cc2)C1 (stereo not given)	inconclusive: 14.1 µM [inhibitor, full curve]	
O=S(=O)(c1ccc2[nH]c3c(c2c1)CCCCC3)N1CCN(c2cccc(Cl)c2)CC1	inconclusive: 39.8 µM [inhibitor, partial curve]	
COc1ccccc1NC(=O)N(Cc1ccco1)Cc1cc2ccc(C)c(C)c2[nH]c1=O	inconclusive: 50.1 µM [inhibitor, partial curve]	
CCOc1ccccc1Nc1nc(-c2cccnc2)cs1	inconclusive: 79.4 µM [inhibitor, partial curve]	
Cc1ccc(C2=Nc3ccccc3NC(C)(c3ccc(C)o3)C2)o1 (stereo not given)	inconclusive: 50.1 µM [inhibitor, partial curve]	
CCCN1CCc2[nH]c(=S)[nH]c(=O)c2C1	inconclusive: 89.1 µM [inhibitor, single point]	
COc1ccc(N2CC(NC(=O)COc3ccc4ccccc4c3)CC2=O)cc1 (stereo not given)		inactive: -24.7%
CCc1ccc(C2CC(c3cccc(Cl)c3)n3nc(N)nc3N2)cc1 (stereo not given)		inactive: -16.2%
COc1cc(C(=S)N2CCOCC2)cc(OC)c1OC		inactive: 1.35%
O=C(N/N=C/c1ccc(OC(=O)c2ccc(Br)cc2)cc1)c1ccncc1	inconclusive: 10 µM [inhibitor, full curve, poor fit]	
O=[N+]([O-])c1ccc(N2CCCC2)cc1NC1CC1	inconclusive: 22.4 µM [inhibitor, full curve]	
COc1ccc(OC)c(C2C3=C(N=c4s/c(=C\c5cccc(O)c5)c(=O)n42)c2ccccc2CC3)c1 (stereo not given)	inconclusive: 56.2 µM [inhibitor, partial curve]	
C=CCOc1cccc(C(=O)N2CCCC(Nc3ccc(F)cc3)C2)c1 (stereo not given)	inconclusive: 20 µM [inhibitor, partial curve]	
COCCn1nnnc1C(c1cccs1)N1CCN(c2cc(C)ccc2C)CC1 (stereo not given)	active: 79.4 µM	
Cc1ccc2c(Cl)cc(Cl)c(OCC(=O)NC(=O)NCc3ccco3)c2n1	inconclusive: 56.2 µM [inhibitor, partial curve, poor fit]	

Structure (SMILES)	Potency	activity change, negative = inhibition
CC1CCCCN1S(=O)(=O)c1cc2c3c(c1)CC(=O)N3CCC2 (stereo not given)		inactive: -0%
Cc1ccc(NC(=O)CCc2ccc(S(=O)(=O)N3CCOCC3)cc2)c(O)c1		inactive: -11.7%
COc1cccc(OC)c1NC(=O)Cn1nc(C)c2ccccc2c1=O	inconclusive: 39.8 µM [inhibitor, partial curve]	
Cc1ccc(Nc2nc(N3CCOCC3)nc(N3CCOCC3)n2)cc1		inactive: -14.1%
CC(C)c1ccc(NC(=S)NNc2ccc(Cl)c(C(=O)O)c2)cc1	inconclusive: 56.2 µM [inhibitor, partial curve]	
CC(=O)Nc1ccc2[nH]c(C)cc(=O)c2c1	inconclusive: 17.8 µM [inhibitor, full curve]	
CCC(/C=C1\Sc2ccc(OC)cc2N1CCO)=C\c1sc2ccc(OC)cc2[n+]1CCO	active: 22.4 µM	
c1ccc(-n2c(SCc3nc(-c4cccs4)no3)nnc2-c2ccco2)cc1	inconclusive: 56.2 µM [inhibitor, partial curve, poor fit]	
COc1cc(-c2nc(C(=O)NC3CCN(Cc4ccccc4)CC3)cc3c2[nH]c2ccccc23)cc(OC)c1OC	inconclusive: 63.1 µM [inhibitor, partial curve, poor fit]	
O=C(CSc1nccn1Cc1ccc(F)cc1)Nc1ccc2c(c1)OCO2	inconclusive: 56.2 µM [inhibitor, partial curve]	
COc1ccc(Cc2ccc(OC)c(N)c2)cc1N	inconclusive: 56.2 µM [inhibitor, partial curve]	
CCN1C(c2ccc(F)cc2)=CS/C1=C(\C#N)c1nnc2n1-c1ccccc1SC2	inconclusive: 28.2 µM [inhibitor, full curve]	
CCS(=O)(=O)N1CCN(Cc2ccccc2OC)CC1	active: 3.16 µM	
CCCCCCCCCCCCCCCC(O)C[N+](C)(C)CCO (stereo not given)	inconclusive: 39.8 µM [inhibitor, single point]	
Cc1cc(C(F)(F)F)n2nc(C)c(-c3ccc(Cl)cc3)c2n1		inactive: -11% [at 57.1 µM]
CCCN(CCC)C(=O)CSc1ncccc1C(=O)O	active: 89.1 µM	
COc1cccc(-n2c(CN3CCN(c4ccc(C)cc4)C(C)C3)nc3ccc([N+](=O)[O-])cc3c2=O)c1 (stereo not given)	inconclusive: 14.1 µM [inhibitor, full curve]	
CC(=O)Nc1ccc2nc3c(=O)n(C)c(=O)n(C)c3nc2c1	active: 79.4 µM	
COc1cc([N+](=O)[O-])ccc1NC(=O)COC(=O)c1c[nH]c(=O)[nH]c1=O		inactive: -11%
CCOc1ccc(N(CC(=O)Nc2ccccc2C(=O)NCc2ccco2)S(C)(=O)=O)cc1	inconclusive: 56.2 µM [inhibitor, partial curve]	
O=C(O)Cn1cc(/C=c2/sc3nc4ccccc4n3c2=O)c2ccccc21	active: 56.2 µM	
O=C(NCC1CCCO1)c1ccc(/C=N/O)nc1 (stereo not given)	inconclusive: 0.891 µM [inhibitor, full curve]	
